Data as given in US20190218304A1, “POTENTIATING THE EFFECT OF ATP RELEASE” (INNATE PHARMA, priority 2017, published 2019).
Numbering of substitutions follows the chain as printed. “Also recorded” adds a separate entry of the source.

T1: cell-membrane bound CD39 (Homo sapiens, UniProt P49961)
T1 sequence (P49961 1-510): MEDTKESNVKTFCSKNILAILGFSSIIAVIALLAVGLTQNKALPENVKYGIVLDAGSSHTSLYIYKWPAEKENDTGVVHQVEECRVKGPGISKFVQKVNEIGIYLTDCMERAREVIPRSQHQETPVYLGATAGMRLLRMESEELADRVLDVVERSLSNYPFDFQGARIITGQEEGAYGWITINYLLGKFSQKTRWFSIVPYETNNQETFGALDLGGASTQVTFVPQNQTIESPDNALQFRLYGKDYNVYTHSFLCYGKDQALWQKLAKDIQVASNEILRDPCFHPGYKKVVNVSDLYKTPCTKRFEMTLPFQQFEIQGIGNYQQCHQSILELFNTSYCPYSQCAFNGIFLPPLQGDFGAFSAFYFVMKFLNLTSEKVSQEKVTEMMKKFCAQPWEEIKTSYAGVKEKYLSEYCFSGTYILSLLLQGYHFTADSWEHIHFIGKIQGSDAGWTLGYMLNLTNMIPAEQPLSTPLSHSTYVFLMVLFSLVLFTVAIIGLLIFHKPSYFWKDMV

T2: soluble recombinant human CD39 protein (Homo sapiens, UniProt P49961)
T2 construct: made in house; host or cells: CHO cells
T2 sequence (P49961 with tags, fused parts or gaps): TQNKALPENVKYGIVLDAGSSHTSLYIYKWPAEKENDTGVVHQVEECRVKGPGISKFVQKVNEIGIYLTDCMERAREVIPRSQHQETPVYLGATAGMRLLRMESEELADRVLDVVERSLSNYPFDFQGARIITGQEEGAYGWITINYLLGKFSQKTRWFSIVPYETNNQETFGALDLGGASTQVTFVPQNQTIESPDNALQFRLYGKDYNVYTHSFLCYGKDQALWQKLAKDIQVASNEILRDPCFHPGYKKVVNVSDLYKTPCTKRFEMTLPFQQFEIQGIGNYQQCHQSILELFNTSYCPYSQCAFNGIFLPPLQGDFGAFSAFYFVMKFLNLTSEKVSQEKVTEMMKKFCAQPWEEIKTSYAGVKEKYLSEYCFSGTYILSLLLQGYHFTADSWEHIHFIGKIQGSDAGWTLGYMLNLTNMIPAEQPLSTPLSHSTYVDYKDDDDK

T3: CD39 mutants (Table 1) expressed in Hek-293T cells (Homo sapiens, UniProt P49961, E142K/M139A/R138A)
T3 construct: expressed in transfected cells; host or cells: Hek-293T cells
T3 sequence (P49961 1-510 R138A/M139A/E142K): T1 sequence (P49961 1-510) with R138A, M139A, E142K

T4: CD39 mutants (Table 1) expressed in Hek-293T cells (Homo sapiens, UniProt P49961, E143A/N99A/Q96A/R147E)
T4 construct: expressed in transfected cells; host or cells: Hek-293T cells
T4 sequence (P49961 1-510 Q96A/N99A/E143A/R147E): T1 sequence (P49961 1-510) with Q96A, N99A, E143A, R147E

T5: CD39 mutants (Table 1) expressed in Hek-293T cells (Homo sapiens, UniProt P49961, D107A/E100A/K87A)
T5 construct: expressed in transfected cells; host or cells: Hek-293T cells
T5 sequence (P49961 1-510 K87A/E100A/D107A): T1 sequence (P49961 1-510) with K87A, E100A, D107A

B1: I-395: anti-CD39 antibody, VH SEQ ID NO: 11, VL SEQ ID NO: 12 (antibody, listed as Mus musculus, V domains shown)
VH: EVQLQQSGPELVKPGASVRMSCKASGYTFTDYNMHWVKKNHGKGLEWIGYINPNNGGTTYNQKFKGKATLTVNTSSKTAYMELRSLTSEDSAVYYCTRGGTRFASWGQGTLVTVSA
VL: NIVLTQSPASLAVSLGQRATISCRASESVDNYGISFMYWFQQKPGQPPKLLIYAASTQGSGVPARFSGSGSGTDFSLNIHPMEEDDTAMYFCQQSKEVPFTFGSGTKLEIK
B2: I-396: anti-CD39 antibody, VH SEQ ID NO: 19, VL SEQ ID NO: 20 (antibody, listed as Mus musculus, V domains shown)
VH: EVQLQQSGAELVKPGASVKLSCIVSGFNIKDTYINWVKQRPEQGLEWIGRIDPANGNTKYDPKFQGKATMTSDTSSNTAYLHLSSLTSDDSAVYYCARWGYDDEEADYFDSWGQGTTLTVSS
VL: B1 VL with N1D, Y38N, T57N, H80L, D85V, T87A, Q93H, F100W, S104G

What was measured:
cell-membrane bound CD39 = target: T1, cell-membrane bound CD39; experiment: Inhibition of the enzymatic activity of cellular CD39 (cells not specified); assay type: cell-based; details: for inhibition of cell-membrane bound (cellular) CD39 ATPase activity: result in words
Method: The inhibition of the CD39 enzymatic activity in CD39-expressing cells by antibodies was evaluated using Cell Titer Glo™ (Promega, reference G7571) that allows assessment of ATP hydrolysis through use of a reagent that generates a luminescent signal proportional to the amount of ATP present. The assay was thus designed to permit assessment of the inhibition of ATP hydrolyzed by CD39 in the cell culture supernatant. Briefly, 5×10^4 Ramos human lymphoma cells, 5×10^3 human CD39-, cynomolgus CD39- and mouse CD39-expressing CHO cells, were incubated 1 hour at 37° C. with anti-CD39 antibodies from 30 μg/ml to 5×10^−4 μg/ml. Cells were then incubated with 20 μM ATP for 1 additional hour at 37° C. Plates were centrifuged for 2 min at 400 g and 50 μl cell supernatant are transferred in a luminescence microplate (white wells). 50 μl CellTiter-Glo® Reagent (CTG) was added to the supernatant and emitted light was quantified after a 5 min incubation in the dark using a Enspire™ luminometer. Anti-CD39 antibody efficacy was determined by comparing emitted light in presence of antibody with ATP alone (maximal light emission) and ATP together with cells (minimal light emission).
The two antibodies that have been reported to inhibit the ATPase activity of CD39 in cellular assays (BY40 and BY12) were assessed to determine whether are able to inhibit the ATPase activity of recombinant soluble CD39 protein. The inhibition by antibodies of the enzymatic activity of soluble CD39 protein produced as described above was evaluated using Cell Titer Glo™ (Promega, reference G7571). The inhibition by antibodies of the enzymatic activity of cellular CD39 protein was evaluated as indicated above.

[1] = target: T2, soluble recombinant human CD39 protein; experiment: Inhibition of the enzymatic activity of soluble CD39 (Cell Titer Glo); assay type: biochemical; details: for relative potency for inhibition of soluble CD39 (FIG. 2B): ranking among I-394, I-395, I-396; for inhibition of the enzymatic (ATPase) activity of soluble CD39 protein: result in words
Method: The inhibition by antibodies of the enzymatic activity of soluble CD39 protein produced was evaluated using Cell Titer Glo™ (Promega, reference G7571) that allows assessment of ATP hydrolysis through use of a reagent that generates a luminescent signal proportional to the amount of ATP present. In this way, inhibition of the soluble-CD39-meidatd ATP hydrolysis can be assessed. Briefly, dose ranges of anti-CD39 antibodies from 100 μg/ml to 6×10^−3 μg/ml were incubated with 400 ng/ml of soluble recombinant human CD39 protein having the amino acid sequence described in the Methods section (SEQ ID NO: 39), for 1 h at 37° C. 20 μM ATP was added to the plates for 30 additional minutes at 37° C. before addition of CTG (Cell Titer Glo) reagent. Emitted light was quantified using an Enspire™ luminometer after a short incubation period of 5 min in the dark. Anti-CD39 antibody efficacy was determined by comparing emitted light in presence of antibody with ATP alone (maximal light emission) and ATP together with soluble CD39 protein (minimal light emission).

[2] = target: T3, CD39 mutants (Table 1) expressed in Hek-293T cells; experiment: Epitope mapping: flow cytometry binding to CD39 mutants in Hek-293T cells; details: mutant 19: R138A, M139A, E142K
Method: (§1) CD39 mutants were generated by PCR. The sequences amplified were run on agarose gel and purified using the Macherey Nagel PCR Clean-Up Gel Extraction kit (reference 740609). The purified PCR products generated for each mutant were then ligated into an expression vector, with the ClonTech InFusion system. The vectors containing the mutated sequences were prepared as Miniprep and sequenced. After sequencing, the vectors containing the mutated sequences were prepared as Midiprep using the Promega PureYield™ Plasmid Midiprep System. HEK293T cells were grown in DMEM medium (Invitrogen), transfected with vectors using Invitrogen's Lipofectamine 2000 and incubated at 37° C. in a […] incubator for 48 hours prior to testing for transgene expression. The targeted amino acid mutations in the table 1 below are shown using numbering of SEQ ID NO: 1.
(§2) In order to define the epitopes of anti-CD39 antibodies, we designed CD39 mutants defined by substitutions of amino acids exposed at the molecular surface over the surface of CD39.
(§3) Mutant 5 contains amino acid substitutions at residues Q96, N99, E143 and R147.
(§4) Mutants were transfected in Hek-293T cells, as shown in the table 1, using numbering of SEQ ID NO: 1. […] Mutant 19 includes substitutions at residues R138, M139 and E142.
(§5) Mutants were transfected in Hek-293T cells, as shown in the table 1, using numbering of SEQ ID NO: 1. Dose-ranges of test antibodies (10-2.5-0.625-0.1563-0.0391-0.0098-0.0024-0.0006 μg/ml) are tested on the 20 generated mutants by flow cytometry.

[3] = target: T4, CD39 mutants (Table 1) expressed in Hek-293T cells; experiment: as above; details: mutant 5: Q96A, N99A, E143A, R147E
Method: as §1, §2, §3, §4, §5

[4] = tested on: CD39 mutants (Table 1) expressed in Hek-293T cells; experiment: as above; parameters: species or system human; details: remaining mutants of the 20 generated
Method: as §1, §2, §3, §4, §5

[5] = target: T5, CD39 mutants (Table 1) expressed in Hek-293T cells; experiment: as above; details: mutant 15: K87A, E100A, D107A
Method: as §1, §2, §3, §4, §5

Row | Molecule | potency and maximal inhibition of cellular CD39, comparison between antibodies (FIG. 2A) (cell-membrane bound CD39; compared with BY40) | inhibition of cell-membrane bound (cellular) CD39 ATPase activity (cell-membrane bound CD39) | relative potency for inhibition of soluble CD39 (FIG. 2B) [1] | inhibition of the enzymatic (ATPase) activity of soluble CD39 protein [1] | binding to cells expressing mutant 19 of CD39 [2] | binding to cells expressing mutant 5 of CD39 [3] | binding to the other CD39 mutants of Table 1 [4] | binding to cells expressing mutant 15 of CD39 [5]
1 | B1 | greater potency and maximal inhibition of cellular CD39 compared to BY40; also recorded: greater potency at all concentrations as well as greater maximal inhibition of cellular CD39 compared to BY40 | inhibit cell-membrane bound CD39 | followed by I-395 | inhibited the enzymatic activity of soluble CD39 protein; also recorded: inhibit soluble CD39 | loss of binding | loss of binding |  | 
2 | B2 |  | inhibit cell-membrane bound CD39 | lower potency | inhibited the enzymatic activity of soluble CD39 protein; also recorded: inhibit soluble CD39 |  |  | without loss of binding to any of the other 20 mutants | loss of binding
